Experimental data published in PubChem BioAssay (Tox21).
The inconclusive results got no clear call from the source; some entries with a clear call stand among them for comparison. For part of these data: Potencies of inconclusive entries are doubtful fits and often do not repeat. Activity calls are given as the source filed them. Unless noted, calls follow the shape of the dose curve; as a rule, active = well fitted curve in the direction sought with a large enough effect in the repeat runs; inconclusive = weak or mixed curves; inactive = no such curve, though single readings can be large; an effect the other way counts as inactive or inconclusive.

Key:
[1] = qHTS assay to identify small molecule agonists of the vitamin D receptor (VDR) signaling pathway - cell viability counter screen (AID 743224); settings: VDR-bla HEK293T viability, CellTiter-Glo luminescence, 16 h; activity change, negative = cytotoxicity: at 62.6 µM (top of the series); also: nearly all actives have a fitted effect of over 50% in size
Summary of the method: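 Plated VDR-bla cells (4 h, 37C) received compound, incubated 16 h, then LiveBLAzer substrate 2 h RT; CellTiter-Glo added afterwards, luminescence read at 30 min.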

[2] = qHTS assay to identify small molecule antagonists of the vitamin D receptor (VDR) signaling pathway - cell viability counter screen (AID 743225); settings: VDR-bla HEK293T viability, CellTiter-Glo luminescence, 16 h; viability change, negative = cytotoxic: at 61 µM (top of the series) unless noted; also: nearly all actives have a fitted effect of over 50% in size
Summary of the method: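 Viability counter screen run in the same wells as the beta-lactamase reporter assay: HEK 293T VDR-UAS-bla cells, 16 h compound exposure at 37C with 3 nM (final) 1-alpha,25-dihydroxyvitamin D3. CellTiter-Glo luminescence, 30 min, room temperature.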

[3] = qHTS assay to identify small molecule agonists of the NFkB signaling pathway (AID 1159509; active = well fitted curve in the direction sought with a large enough effect in the signal ratio in the repeat runs, not every such curve was filed as active; inconclusive = weak or mixed curves, or a change in a side signal; inactive = no such curve, though single readings can be large or run the other way; the % refers to the signal ratio; as to activation: % is scaled to controls: 0 for no effect and ±100 for the full control effect); settings: NFkB-bla ME-180 cells, beta-lactamase FRET ratio, 5 h; activation: at 61 µM (top of the series) unless noted
Summary of the method: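 After overnight attachment, reporter cells received test compounds, DMSO or positive controls and were incubated 5 hr at 37 C. FRET substrate was then added for 1.5 hr at room temperature before dual-emission fluorescence reading.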

[4] = qHTS assay to identify small molecule agonists of the endoplasmic reticulum stress response signaling pathway (AID 1159516; active = well fitted activation curve with a large enough effect in the signal ratio in the repeat runs, not every such curve was filed as active; inconclusive = weak or mixed curves, or effect the other way; the % refers to the signal ratio; as to activation: % is scaled to controls: 0 for no effect and ±100 for the full control effect); settings: ESRE-bla HeLa, ER stress beta-lactamase reporter, 5 h; activation: at 61 µM (top of the series) unless noted
Summary of the method: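 An ESRE-bla HeLa cell assay: compounds were pin-transferred from DMSO onto overnight-plated cells and left 5 hr at 37 C. Substrate was then loaded for 2 hr at room temperature before reading fluorescence at 460 nm and 530 nm.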

[5] = qHTS assay to identify small molecule agonists of the endoplasmic reticulum stress response signaling pathway - cell viability counter screen (AID 1159517; calls by dose curve; also: nearly all actives have a fitted effect of over 50% in size;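 as to activity change, negative = cytotoxicity: HeLa cells carrying an ER stress response element beta-lactamase reporter; % is scaled to controls: 0 for no effect and ±100 for the full control effect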); settings: ESRE-bla HeLa viability, CellTiter-Glo luminescence, 5 h; series mostly up to 61 µM
Summary of the method: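 Cells, HeLa ESRE-bla; density, 1,500/well; dosing, 5 hr at 37 C, 5% CO2; readout, CellTiter-Glo luminescence after 30 min RT.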

[6] = qHTS assay to identify small molecule antagonists of the retinoid-related orphan receptor gamma (ROR-gamma) signaling pathway - cell viability counter screen (AID 1159520); settings: Tet-on RORgamma CHO cells viability, ATP luminescence, 16 h; series mostly up to 92.4 µM; also: nearly all actives have a fitted effect of over 50% in size
Summary of the method: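 Cytotoxicity was read from cellular ATP (CellTiter-Glo luminescence) after 16 hr at 37 C with 1 uM doxycycline induction. The inducer was added 2 hr after compound transfer to Tet-on ROR gamma CHO cells.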

[7] = qHTS assay to identify small molecule agonists of the AP-1 signaling pathway - cell viability counter screen (AID 1159525; calls by dose curve; also: nearly all actives have a fitted effect of over 55% in size); settings: ME-180 AP-1-bla cells viability, ATP luminescence, 5 h; series mostly up to 76.8 µM
Summary of the method: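 Luminescent ATP readout (Cell Titer Glo, 30 min RT), normalised to DMSO and tetra n-octyl ammonium bromide controls. Cells were ME-180 AP-1-bla in 0.5% dialyzed FBS Opti-MEM, with a 5 h, 37 °C compound exposure.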

[8] = qHTS assay to identify small molecule agonists of the AP-1 signaling pathway (AID 1159526; calls by dose curve; as to activation: % is scaled to controls: 0 for no effect and ±100 for the full control effect); settings: ME-180 (cervical carcinoma) AP-1-bla reporter, beta-lactamase FRET ratio, 5 h; activation: at 76.8 µM (top of the series) unless noted
[9] = molecular target: Nuclear receptor ROR-gamma (Homo sapiens) (UniProt P51449); assay: qHTS assay to identify small molecule antagonists of the retinoid-related orphan receptor gamma (ROR-gamma) signaling pathway (AID 1159521; also: nearly all actives have a fitted effect of over 50% in size); settings: Tet-on RORgamma CHO cells, RORE-luciferase, 16 h; series mostly up to 92.4 µM
Summary of the method: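 Luminescence readout (ONE-Glo, 30 min RT) after 16 h doxycycline induction; loss of signal scored as antagonism. CHO cells with TET-inducible RORγ and RORE-LUC reporter; compounds added 2 h before 1 uM final doxycycline.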
Potency is read from the fitted curve at half-maximal effect; tags tell the direction and shape of the fitted curve or compound fluorescence and quenching.

For `O=C1C=CC(=O)N1`, the Potency [1] was active: 12.6 µM, the Potency [2] was active: 35.6 µM and the Potency [3] was inconclusive: 20 µM [falling, partial curve]. For the same compound, the Potency [4] was inconclusive: 31.7 µM [falling, partial curve], the Potency [5] was inconclusive: 22.5 µM [cytotoxic, single point] and the Potency [6] was active: 12.5 µM. The Potency [7] was inconclusive: 11.3 µM [rising, full curve] and the Potency [8] was inconclusive: 40 µM [cytotoxic, partial curve].

In the case of `CCCCCCCCCCCCOCCOCCOCCOCCOCCOCCOCCOCCOCCO`, the Potency [1] is reported as active: 29.8 µM, the Potency [2] is reported as active: 10.7 µM and the Potency [3] is reported as inconclusive: 26.8 µM [falling, single point]. The Potency [4] was “inactive”, the Potency [5] was “inactive” and the Potency [6] was inconclusive: 23.7 µM [cytotoxic, partial curve]. The Potency [7] was inconclusive: 26.8 µM [cytotoxic, single point] and the Potency [8] was inconclusive: 26.8 µM [single point].

In the case of `O=C(O)C(O)[C@H](O)[C@@H](O)[C@H](O)[C@H](O)CO` (stereo partly drawn), the Potency [3] is reported as “inactive” and the Potency [4] is reported as “inactive”.

For `CCC(C)n1ncn(-c2ccc(N3CCN(c4ccc(OC[C@H]5CO[C@](Cn6cncn6)(c6ccc(Cl)cc6Cl)O5)cc4)CC3)cc2)c1=O` (stereo partly drawn), the Potency [3] was inconclusive: 6.01 µM [falling, full curve] and the Potency [4] was inconclusive: 7.56 µM [falling, full curve].

For `N#CSc1ccc(N)c([N+](=O)[O-])c1`, the Potency [1] was active: 55.3 µM, the Potency [2] was inconclusive: 55.3 µM [cytotoxic, partial curve, poor fit] and the Potency [3] was inconclusive: 13.9 µM [falling, full curve]. For the same compound, the activation [4] was inconclusive: -8.66% [at 78.8 µM], the Potency [5] was inconclusive: 3.11 µM [cytotoxic, full curve, poor fit] and the Potency [6] was inconclusive: 48.9 µM [cytotoxic, partial curve]. For the same compound, the Potency [8] was inconclusive: 17.5 µM.

In the case of `CC(C)(C)CCCCCCOC(=O)c1ccccc1C(=O)OCCCCCCC(C)(C)C`, the Potency [3] is reported as “inactive” and the Potency [4] is reported as inconclusive: 13.8 µM [falling, single point].

For `O=C(Nc1ccc(Oc2ccc(Cl)cc2)c(Cl)c1)c1cc(I)cc(I)c1O`, the Potency [1] was active: 18.8 µM, the Potency [2] was inconclusive: 16.9 µM [cytotoxic, partial curve] and the Potency [3] was inconclusive: 7.56 µM [rising, partial curve]. For the same compound, the activation [4] was inconclusive: 2.72%, the Potency [5] was inconclusive: 26.8 µM [cytotoxic, partial curve, poor fit] and the Potency [6] was inconclusive: 29.8 µM [cytotoxic, single point]. The activation [8] was inconclusive: -19.4% [at 35.3 µM].

With `O=C(COCCOCCOCC(=O)Nc1c(I)cc(I)c(C(=O)O)c1I)Nc1c(I)cc(I)c(C(=O)O)c1I` the Potency [3] was “inactive” and the Potency [4] was “inactive”.

In the case of `O=Cc1ccc(Cl)c(Cl)c1`, the Potency [3] is reported as “inactive” and the Potency [4] is reported as “inactive”.

In the case of `CC(Oc1cc(Cl)ccc1Cl)C(=O)O` (stereo not drawn), the Potency [3] is reported as “inactive” and the Potency [4] is reported as “inactive”.

With `O=[N+]([O-])c1ccc(O/N=C/c2cc(Br)c(O)c(Br)c2)c([N+](=O)[O-])c1` the Potency [2] was inconclusive: 21.8 µM [cytotoxic, partial curve, poor fit], the Potency [3] was “inactive” and the Potency [4] was inconclusive: 3.87 µM [rising, full curve, poor fit]. The Potency [5] was inconclusive: 48.7 µM [cytotoxic, partial curve, poor fit], the Potency [6] was inconclusive: 19.2 µM [cytotoxic, partial curve, poor fit] and the Potency [9] was active: 6.82 µM. For the same compound, the Potency [7] was “inactive” and the Potency [8] was inconclusive: 4.34 µM [inhibitor, partial curve, poor fit].

For `O=Cc1cc(O)ccc1Br`, the Potency [3] was inconclusive: 62.5 µM [falling, single point], the Potency [4] was inconclusive: 62.5 µM [cytotoxic] and the Potency [5] was inconclusive: 49.7 µM [cytotoxic, single point]. The Potency [6] was inconclusive: 62 µM [cytotoxic, partial curve, poor fit].

In the case of `CC(C)Nc1ccccc1`, the Potency [3] is reported as “inactive” and the Potency [4] is reported as “inactive”.

With `CCOC(=O)c1nc(C(Cl)(Cl)Cl)n(-c2ccc(Cl)cc2Cl)n1` the Potency [1] was inconclusive: 54.9 µM [cytotoxic, single point], the Potency [2] was active: 49 µM and the Potency [3] was inconclusive: 49 µM [falling, partial curve]. For the same compound, the Potency [4] was inconclusive: 43.6 µM [cytotoxic, partial curve], the Potency [5] was inconclusive: 61.6 µM [cytotoxic] and the Potency [6] was inconclusive: 68.6 µM [cytotoxic, partial curve]. The Potency [8] was inconclusive: 24.5 µM [cytotoxic, partial curve].
